Results on 31 molecules are retold here after paper PMC9911399, “Two distinct binding modes provide the RNA-binding protein RbFox with extraordinary sequence specificity”.

B1: GGGUGCC (DNA:RNA)
RNA: GGGAGACCGGAAUUCAGAUUGUCCGGGUGCCUUAAAUCCCGUCGUAGCCACCA
DNA 1: CAATCTGAATTCCGGTCTCCC
DNA 2: TGGTGGCTACGACGGGATT
B2: GUGCAUA (DNA:RNA)
RNA: B1 RNA with G26U, U28C, G29A, C30U, C31A
DNA 1: CAATCTGAATTCCGGTCTCCC
DNA 2: TGGTGGCTACGACGGGATT
B3: AGGUCGU (DNA:RNA)
RNA: B1 RNA with G25A, G29C, C30G, C31U
DNA 1: CAATCTGAATTCCGGTCTCCC
DNA 2: TGGTGGCTACGACGGGATT
B4: GUCUGAC (DNA:RNA)
RNA: B1 RNA with G26U, G27C, C30A
DNA 1: CAATCTGAATTCCGGTCTCCC
DNA 2: TGGTGGCTACGACGGGATT
B5: CAAGUUU (DNA:RNA)
RNA: GGGAGACCGGAAUUCAGAUUGUCCCAAGUUUUUAAAUCCCGUCGUAGCCACCA
DNA 1: CAATCTGAATTCCGGTCTCCC
DNA 2: TGGTGGCTACGACGGGATT
B6: GACAGCA (DNA:RNA)
RNA: B1 RNA with G26A, G27C, U28A, C31A
DNA 1: CAATCTGAATTCCGGTCTCCC
DNA 2: TGGTGGCTACGACGGGATT
B7: CAUGUGC (DNA:RNA)
RNA: B5 RNA with A27U, U30G, U31C
DNA 1: CAATCTGAATTCCGGTCTCCC
DNA 2: TGGTGGCTACGACGGGATT
B8: CGUCUCG (DNA:RNA)
RNA: B5 RNA with A26G, A27U, G28C, U30C, U31G
DNA 1: CAATCTGAATTCCGGTCTCCC
DNA 2: TGGTGGCTACGACGGGATT
B9: AGCCCGC (DNA:RNA)
RNA: B1 RNA with G25A, G27C, U28C, G29C, C30G
DNA 1: CAATCTGAATTCCGGTCTCCC
DNA 2: TGGTGGCTACGACGGGATT
B10: CUGGCCC (DNA:RNA)
RNA: B1 RNA with G25C, G26U, U28G, G29C
DNA 1: CAATCTGAATTCCGGTCTCCC
DNA 2: TGGTGGCTACGACGGGATT
B11: UACCUCG (DNA:RNA)
RNA: B5 RNA with C25U, A27C, G28C, U30C, U31G
DNA 1: CAATCTGAATTCCGGTCTCCC
DNA 2: TGGTGGCTACGACGGGATT
B12: GAGUCCU (DNA:RNA)
RNA: B1 RNA with G26A, G29C, C31U
DNA 1: CAATCTGAATTCCGGTCTCCC
DNA 2: TGGTGGCTACGACGGGATT
B13: ACUAACA (DNA:RNA)
RNA: B1 RNA with G25A, G26C, G27U, U28A, G29A, C31A
DNA 1: CAATCTGAATTCCGGTCTCCC
DNA 2: TGGTGGCTACGACGGGATT
B14: UCAGAAC (DNA:RNA)
RNA: B5 RNA with C25U, A26C, U29A, U30A, U31C
DNA 1: CAATCTGAATTCCGGTCTCCC
DNA 2: TGGTGGCTACGACGGGATT
B15: CACUAGC (DNA:RNA)
RNA: B5 RNA with A27C, G28U, U29A, U30G, U31C
DNA 1: CAATCTGAATTCCGGTCTCCC
DNA 2: TGGTGGCTACGACGGGATT
B16: AGAUUCC (DNA:RNA)
RNA: B1 RNA with G25A, G27A, G29U
DNA 1: CAATCTGAATTCCGGTCTCCC
DNA 2: TGGTGGCTACGACGGGATT
B17: AGGGGGC (DNA:RNA)
RNA: B1 RNA with G25A, U28G, C30G
DNA 1: CAATCTGAATTCCGGTCTCCC
DNA 2: TGGTGGCTACGACGGGATT
B18: CCUGGUA (DNA:RNA)
RNA: B5 RNA with A26C, A27U, U29G, U31A
DNA 1: CAATCTGAATTCCGGTCTCCC
DNA 2: TGGTGGCTACGACGGGATT
B19: AUUGAUC (DNA:RNA)
RNA: B5 RNA with C25A, A26U, A27U, U29A, U31C
DNA 1: CAATCTGAATTCCGGTCTCCC
DNA 2: TGGTGGCTACGACGGGATT
B20: GGGCCCG (DNA:RNA)
RNA: B1 RNA with U28C, G29C, C31G
DNA 1: CAATCTGAATTCCGGTCTCCC
DNA 2: TGGTGGCTACGACGGGATT
B21: CUUCGCG (DNA:RNA)
RNA: B1 RNA with G25C, G26U, G27U, U28C, C31G
DNA 1: CAATCTGAATTCCGGTCTCCC
DNA 2: TGGTGGCTACGACGGGATT
B22: GUACCGC (DNA:RNA)
RNA: B1 RNA with G26U, G27A, U28C, G29C, C30G
DNA 1: CAATCTGAATTCCGGTCTCCC
DNA 2: TGGTGGCTACGACGGGATT
B23: CCUCUCA (DNA:RNA)
RNA: B5 RNA with A26C, A27U, G28C, U30C, U31A
DNA 1: CAATCTGAATTCCGGTCTCCC
DNA 2: TGGTGGCTACGACGGGATT
B24: UUCUAGU (DNA:RNA)
RNA: B5 RNA with C25U, A26U, A27C, G28U, U29A, U30G
DNA 1: CAATCTGAATTCCGGTCTCCC
DNA 2: TGGTGGCTACGACGGGATT
B25: AGUCAAC (DNA:RNA)
RNA: B1 RNA with G25A, G27U, U28C, G29A, C30A
DNA 1: CAATCTGAATTCCGGTCTCCC
DNA 2: TGGTGGCTACGACGGGATT
B26: CACGUUU (DNA:RNA)
RNA: B5 RNA with A27C
DNA 1: CAATCTGAATTCCGGTCTCCC
DNA 2: TGGTGGCTACGACGGGATT
B27: CUGGGAG (DNA:RNA)
RNA: B5 RNA with A26U, A27G, U29G, U30A, U31G
DNA 1: CAATCTGAATTCCGGTCTCCC
DNA 2: TGGTGGCTACGACGGGATT
B28: CGACCUG (DNA:RNA)
RNA: B5 RNA with A26G, G28C, U29C, U31G
DNA 1: CAATCTGAATTCCGGTCTCCC
DNA 2: TGGTGGCTACGACGGGATT
B29: CGGAACG (DNA:RNA)
RNA: B1 RNA with G25C, U28A, G29A, C31G
DNA 1: CAATCTGAATTCCGGTCTCCC
DNA 2: TGGTGGCTACGACGGGATT
B30: GCUUCGU (DNA:RNA)
RNA: B1 RNA with G26C, G27U, G29C, C30G, C31U
DNA 1: CAATCTGAATTCCGGTCTCCC
DNA 2: TGGTGGCTACGACGGGATT
B31: CUGACGA (DNA:RNA)
RNA: B5 RNA with A26U, A27G, G28A, U29C, U30G, U31A
DNA 1: CAATCTGAATTCCGGTCTCCC
DNA 2: TGGTGGCTACGACGGGATT

Residue numbers refer to the chain shown, from its start. Some of the results follow.

The experiment deals with T1, RBFOX1 RRM RbFoxmut (Fox-RRM*) (Homo sapiens, UniProt Q9NWB1 109-208, R118D;E147R;N151S;E152T).
T1 sequence: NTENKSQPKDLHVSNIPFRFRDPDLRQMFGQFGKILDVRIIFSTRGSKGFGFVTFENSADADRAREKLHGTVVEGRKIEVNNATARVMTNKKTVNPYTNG
Put plainly: EMSA; HiTS-Eq, 1 nM pool, 10 min; buffer printed only for the single-RNA assays: 10 mM Tris pH 7.5, 150 mM NaCl, 3.4 mM EDTA, 0.001% NP-40, 30 C. As to conditions: tags: His6 N-terminal (pET28a); label: 5' 32P. Put shortly:
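A pool of RNA with 7 randomized nucleotides, 5′-radiolabelled and with DNA-annealed flanks, was equilibrated at 1 nM for 10 min in 50 µL with purified RbFox RRM, wild type or mutant, across increasing protein concentrations. Free RNA was separated by 8% native PAGE, excised, reverse-transcribed, barcoded by PCR and sequenced. Relative association constants were obtained from read-count changes of each RNA species versus the control reaction and normalised to the cognate motif.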
For orientation: A gel shift assay detects complexes by their altered migration in electrophoresis.
Regarding B1, the binding signal was 0.178 KA relative to UGCAUGU.
B2: the binding signal was 0.153 KA relative to UGCAUGU.
The same measure for B3: 0.128 KA relative to UGCAUGU; for B4: 0.104 KA relative to UGCAUGU.
The same measure for B5: 0.11 KA relative to UGCAUGU; for B6: 0.0964 KA relative to UGCAUGU.
Regarding B7, the binding signal was 0.139 KA relative to UGCAUGU.
As to B8, the binding signal is 0.162 KA relative to UGCAUGU.
Regarding B9, the binding signal is 0.0869 KA relative to UGCAUGU.
On to B10, for which the binding signal was 0.0909 KA relative to UGCAUGU.
In the case of B11, the binding signal was 0.107 KA relative to UGCAUGU.
The same measure for B12: 0.0759 KA relative to UGCAUGU; for B13: 0.125 KA relative to UGCAUGU.
In the case of B14, the binding signal was 0.0854 KA relative to UGCAUGU.
The same measure for B15: 0.117 KA relative to UGCAUGU.
B16: the binding signal was 0.0687 KA relative to UGCAUGU.
The same measure for B17: 0.115 KA relative to UGCAUGU; for B18: 0.137 KA relative to UGCAUGU; for B19: 0.0635 KA relative to UGCAUGU.
As to B20, the binding signal is 0.133 KA relative to UGCAUGU.
As for B21, the binding signal was 0.143 KA relative to UGCAUGU.
B22: the binding signal is 0.0842 KA relative to UGCAUGU.
On to B23, for which the binding signal is 0.0614 KA relative to UGCAUGU.
B24: the binding signal is 0.158 KA relative to UGCAUGU.
The same measure for B25: 0.0571 KA relative to UGCAUGU.
For B26, the binding signal is 0.105 KA relative to UGCAUGU.
Consider B27, for which the binding signal was 0.119 KA relative to UGCAUGU.
Consider B28, for which the binding signal was 0.0669 KA relative to UGCAUGU.
Take B29: the binding signal is 0.53 KA relative to UGCAUGU.
On to B30, for which the binding signal was 0.184 KA relative to UGCAUGU.
For the molecule B31, the binding signal was 0.0574 KA relative to UGCAUGU.
